Test results as given in PubChem BioAssay AID1458 (National Center for Advancing Translational Sciences (NCATS), 2008).
Among all 210,000 compounds or so, about 5,900 (2.8%) were called active. Inconclusive results, whose numbers are uncertain, are shown with a selection of clear calls. Calls follow the shape of the dose curve; as a rule, active = well fitted activation curve with a large enough effect; inconclusive = small, poorly fitted or top-dose-only effect; inactive = no such curve, though single readings can be large or run the other way. Potencies of inconclusive entries are doubtful fits and often do not repeat.

assay: qHTS Assay for Enhancers of SMN2 Splice Variant Expression; settings: HEK293 SMN2-luciferase splicing reporter, luminescence, 30-36 h; activity change, positive = activation: at 46.1 µM (top of the series); also: nearly all actives have a fitted effect of over 55% in size; as to activity change, positive = activation: % of control where 0% means no effect
Method in brief: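 HEK293 cells carry an SMN2 […]–luciferase reporter in which exon 7 inclusion puts luciferase in frame. Cells were plated 10-12 h before compound addition, then incubated 30-36 h at 37C. ONE-Glo luminescence was read; sodium butyrate at 4.5 mM final served as control.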
Potency is read from the fitted curve at half-maximal effect; tags tell the direction and shape of the fitted curve.

Row | SMILES | activity change, positive = activation | Potency
1 | CCCCc1nc2c(c3c1C[C@H](C)OC3)CN(C(=O)c1ccco1)CC2 | inactive: -11.9% [at 9.22 µM] | 
2 | c1cnc(Sc2ccc3nnnn3n2)nc1 | inactive: -20.3% | 
3 | COc1cccc(NC(=O)c2ccc3snnc3c2)c1 |  | inconclusive: 35.5 µM [activator, single point]
4 | Cc1ccc(Nc2nc(/N=C/NO)n[nH]2)cc1C |  | inconclusive: 14.1 µM [activator, single point]
5 | Cc1cc(C)n2cc(CSCc3ccco3)nc2n1 | inactive: 1.55% | 
6 | CC(=O)/C(=N/Nc1cccc(C)c1)N1CCOCC1 |  | inconclusive: 3.55 µM [activator, full curve]
7 | C/C(Cn1cnc([N+](=O)[O-])n1)=N\NC(=O)c1ccc(F)cc1 |  | inconclusive: 17.8 µM [activator, single point]
8 | Nc1c(C(=O)c2ccc(Cl)cc2)sc2nc3c(cc12)CCC3 |  | inconclusive: 7.08 µM [activator, full curve]
9 | COc1ccc(NC(=O)Nc2cccc(C)n2)cc1 |  | active: 11.2 µM
10 | CC(C)(C)c1cc(NC(=O)C2CCCO2)no1 (stereo not given) |  | inconclusive: 35.5 µM [activator, single point]
11 | O=C(Nc1nccs1)c1ccc(Cl)c(S(=O)(=O)N2CCOCC2)c1 | inactive: -18.5% | 
12 | Cc1cc(C)n2[nH]c(=O)c(N=Nc3cccc(C(F)(F)F)c3)c2n1 |  | inconclusive: 3.98 µM [activator, full curve, poor fit]
13 | CC(=O)Nc1ccc(C(=O)NCCc2ccccc2)cc1 |  | active: 15.8 µM
14 | Cc1ccc(Nc2c(-c3ccc(N4CCOCC4)cc3)nc3c(C)cccn23)cc1 | inactive: 5.68% | 
15 | COc1ccc(/C=C/C(=O)Nc2cc(C)on2)cc1 |  | active: 10 µM
16 | Cn1c(=O)c2c(n(C)c1=O)=NC1(CCCCC1)N=2 |  | inconclusive: 11.2 µM [activator, single point]
17 | O=C(O)CNC(=O)C12CC3CC(CC(Cl)(C3)C1)C2 | inactive: 3.21% | 
18 | CC(CCc1ccccc1)NC(=O)C(=O)Nc1ccccc1 (stereo not given) |  | active: 14.1 µM
19 | c1cnc(Nc2nc(-c3ccc4ccccc4c3)cs2)nc1 |  | inconclusive: 0.447 µM [activator, full curve]
20 | Cc1ccc(O)c(NC(=O)c2cc(-c3ccc(F)cc3)on2)c1 |  | inconclusive: 8.91 µM [activator, partial curve, poor fit]
21 | COC(=O)c1ccc(Cl)cc1NC(=O)NC(C)c1c(-n2cccc2)sc(C)c1C (stereo not given) | inactive: -5.23% | 
22 | CCc1ccc2oc(-c3ccc(OC)cc3)cc(=Nc3cccc(C(=O)O)c3)c2c1 |  | inconclusive: 1.78 µM [activator, full curve, poor fit]
23 | Cc1ccc(-c2csc(NC(=O)C3=COCCO3)n2)cc1 |  | active: 14.1 µM
24 | Cc1cccc(N(C)c2cc(C)nc3nc(C)nn23)c1 |  | inconclusive: 12.6 µM [activator, partial curve]
25 | CCc1cc2c3c(c1)C1(C(=O)N3C(C)(C)CC2C)C(C#N)=C(N)N2C(=C1C#N)Nc1ccccc12 (stereo not given) |  | inconclusive: 35.5 µM [activator, single point]

Row | SMILES | activity change, positive = activation | Potency
26 | Cc1ccc(SCCC(=O)N2CCOCC2)cc1 |  | inconclusive: 7.08 µM [activator, partial curve, poor fit]
27 | Cc1ccc(C(=O)Nc2nc(=O)n(C(=O)c3ccccc3Cl)s2)cc1 |  | inconclusive: 11.2 µM [activator, partial curve]
28 | Fc1cc(F)c2nc(Nc3nc4cc5c(cc4s3)OCO5)sc2c1 |  | active: 17.8 µM
29 | COc1ccc(CCNC(=O)c2cc3c(-c4ccc(OC)c(OC)c4)nn(C)c3s2)cc1OC |  | inconclusive: 0.224 µM [activator, full curve, poor fit]
30 | Cc1cc(C)c(S(=O)(=O)Nc2cccc3nsnc23)c(C)c1 |  | inconclusive: 0.158 µM [activator, full curve]
31 | Cc1ccsc1/C=N/NC(=O)C(N)=O |  | inconclusive: 11.2 µM [activator, single point]
32 | CCOCCn1c(SCc2ccc(C)cc2)nc2c1c(=O)[nH]c(=O)n2C | inactive: 2.61% | 
33 | Cn1nnc2cc(NC(=O)N3CC4(C)CC3CC(C)(C)C4)ccc21 (stereo not given) |  | inconclusive: 4.47 µM [activator, full curve]
34 | CCOC(=O)Cc1csc(NC(=O)/C=C/c2ccc(OC)cc2)n1 | inactive: -13% | 
35 | Cc1ccc2c(CC(=O)Nc3ccc(S(=O)(=O)N4CCCCC4C)cc3)coc2c1C (stereo not given) | inactive: 3.63% | 
36 | Cc1cccc(Nc2nc(-c3ccccn3)cs2)n1 |  | active: 3.16 µM
37 | Clc1ccc(-c2nnc(N3CCCC3)nn2)cc1 |  | active: 6.31 µM
38 | Cc1cccc2nc(Cn3c(=O)n(-c4ccc(Cl)cc4)c(=O)c4c5c(sc43)CCC5)cc(=O)n12 | inactive: 4.36% | 
39 | CCc1ccc(-c2ccc(SCc3ccccn3)nn2)cc1 |  | inconclusive: 2.51 µM [activator, partial curve, poor fit]
40 | Nc1cccc(C(=O)Nc2ccc(N)cc2Cl)c1 |  | inconclusive: 7.94 µM [activator, partial curve]
41 | C=CCSc1nnc(-c2ccccc2NC(C)=O)c(=O)[nH]1 |  | inconclusive: 6.31 µM [activator, partial curve]
42 | COc1ccc(-c2coc3c(CN4CCCCC4)c(O)c(CN4CCCCC4)c(O)c3c2=O)cc1 |  | inconclusive: 4.47 µM [activator, full curve]
43 | O=C(/C=C\Nc1ccc2c(c1)OCO2)c1ccc2c(c1)OCO2 |  | inconclusive: 14.1 µM [activator, single point]
44 | O=C(Nc1cccc(Cl)c1)N1CCN(Cc2ccccc2)CC1 |  | active: 10 µM
45 | Cc1ccc(C(=O)Nc2ccc(Cl)cc2C)c(Cl)c1 |  | active: 10 µM
46 | O=C(/C=C/N1CCOCC1)c1cc2ccccc2o1 |  | active: 11.2 µM
47 | C/C(=N\NC(=O)c1cccs1)c1ccc2c(c1)OCO2 |  | inconclusive: 15.8 µM [activator, single point]
48 | O=C(COC(=O)c1ccco1)Nc1ccccc1 | inactive: 12.2% | 
49 | CCC(C)c1ccc(O[C@@H]2O[C@H](CO)[C@@H](O)[C@H](O)[C@H]2NC(C)=O)cc1 (stereo not given in full) |  | inconclusive: 28.2 µM [activator, partial curve, poor fit]
50 | CCCc1nnc(-c2cc(OC)c(OC)c(OC)c2)o1 |  | inconclusive: 15.8 µM [activator, single point]

Row | SMILES | activity change, positive = activation | Potency
51 | Fc1cccc(CN2CCCCCCC2)c1 |  | inconclusive: 3.55 µM [activator, full curve, poor fit]
52 | COc1ccc(OC)c(NC(=O)c2cn(C)c(=O)c3cc(OC)c(OC)cc23)c1 |  | inconclusive: 0.0032 µM [activator, full curve, poor fit]
53 | O=S(=O)(c1cccc(-c2n[nH]c(=S)n2C2CCCC2)c1)N1CCOCC1 | inactive: -28.7% | 
54 | Cn1c(=O)c2c(nc(N3CCCCCC3)n2CC(=O)c2ccc(Br)cc2)n(C)c1=O |  | inconclusive: 2.24 µM [activator, full curve, poor fit]
55 | c1csc(-c2nc3nc4ccccc4nc3n2Cc2ccc3c(c2)OCO3)c1 |  | inconclusive: 15.8 µM [activator, single point]
56 | Cc1ccc(C)n1-c1ccc(N2CCOCC2)nc1 |  | active: 14.1 µM
57 | CCOC(=O)c1sc2nc(NC(=O)C(C)(C)C)sc2c1C |  | inconclusive: 35.5 µM [activator, single point]
58 | O=C(O)CCn1c(SCc2ccccc2)nc2ccccc21 |  | inconclusive: 17.8 µM [activator, partial curve]
59 | NNC(=O)c1cccc(COc2cccc(Br)c2)c1 |  | inconclusive: 12.6 µM [activator, partial curve]
60 | CC(C)Cc1cc(C(=O)NCc2ccc(Cl)cc2)no1 |  | inconclusive: 11.2 µM [activator, partial curve]
61 | CSc1ccc(/C=N/Nc2cccc(C(=O)O)c2)cc1 |  | active: 0.251 µM
62 | COC(=O)CSc1nc(NCc2ccccc2)nc(N(C)C)n1 |  | inconclusive: 3.16 µM [activator, single point]
63 | CC(=O)c1cccc(S(=O)(=O)NCC2CCCCC2)c1 |  | inconclusive: 0.199 µM [activator, full curve, poor fit]
64 | Cc1csc2nc(CSc3nc4ccccc4o3)c(Br)n12 |  | inconclusive: 2.24 µM [activator, partial curve]
65 | CCN1C(=O)c2cccc3c(NC(=O)c4ccccc4)ccc1c23 |  | inconclusive: 25.1 µM [activator, single point]
66 | CCCOc1ccc(-c2c(C(=O)N/N=C/c3ccc(OCC)cc3)nnn2-c2nonc2N)cc1 | inactive: -9.58% | 
67 | COC(=O)C(N)Cc1ccc(Cl)cc1 (stereo not given) | inactive: -1.27% | 
68 | Cc1cc(C(=O)CSC(=S)SC(C)(C)C)ccc1Cl | inactive: -9.23% [at 9.22 µM] | 
69 | CCOC(=O)/C=C(\C)Sc1cc(=O)oc2ccccc12 |  | inconclusive: 3.16 µM [activator, partial curve, poor fit]
70 | c1ccncc1 | inactive: -3.16% | 
71 | C(/C=C/c1ccco1)=N/N1CCN(c2ccccc2)CC1 |  | inconclusive: 17.8 µM [activator, partial curve, poor fit]
72 | Nn1cnnc1SCC(=O)Nc1ccc(C2CCCCC2)cc1 |  | inconclusive: 12.6 µM [activator, single point]
73 | CCn1cc(/C=N/NC(=O)c2ccc3c(c2)OCO3)c(C)n1 |  | inconclusive: 7.08 µM [activator, partial curve]
74 | COc1ccc(-c2nc3n(c2Br)CCC3)cc1 |  | inconclusive: 35.5 µM [activator, single point]
75 | O=c1c(Cl)c(NCCO)cnn1-c1cccc(Cl)c1 |  | inconclusive: 15.8 µM [activator, partial curve, poor fit]
